Experimental data published in PubChem BioAssay AID1963576 (National Center for Advancing Translational Sciences (NCATS), 2024).
Hit rate of the full screen: of about 46,000 compounds, about 60 (0.1%) were called active. The inconclusive results got no clear call from the source; some entries with a clear call stand among them for comparison. The call rests on the fitted dose curve; in most records, active means well fitted inhibition curve with a large enough effect; inconclusive means small, poorly fitted or top-dose-only effect; inactive means no such curve, though single readings can be large or run the other way. Potencies of inconclusive entries are left out as doubtful fits.

Assay: Primary qHTS assay for Inhibitors of ovarian cancer metastasis using an organotypic tumor microenvironment (TME) model. Further: nearly all actives have a fitted effect of over 65% in size.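 On Potency: count of GFP cancer cells still attached after washing and fixation.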
Details: SKOV3ip1-GFP adhesion/invasion on 3D omental model, fluorescence; series mostly up to 45.8 µM
Excerpt: PI: Ernst Lengyel MD., Ph.D. Department of Obstetrics and Gynecology, Section of Gynecologic Oncology University of Chicago Medicine, Chicago, Illinois. The tumor microenvironment (TME) is a key determinant of metastatic efficiency. We performed a quantitative high-throughput screen (qHTS) of diverse medicinal chemistry tractable scaffolds (44,420 compounds) and pharmacologically active small molecules (386 compounds) using a layered organotypic, robust assay representing the ovarian cancer metastatic TME. This 3D model contains primary human mesothelial cells, fibroblasts, and extracellular matrix, to which fluorescently labeled ovarian cancer cells are added. Initially, 100 compounds inhibiting ovarian cancer adhesion/invasion to the 3D model in a dose-dependent manner were identified. Of those, eight compounds were confirmed active in five high-grade serous ovarian cancer cell lines and were further validated in secondary in vitro and in vivo biological assays. […] Specifically, NCGC00117362 and PP-121 inhibited ovarian cancer adhesion, invasion, and proliferation, whereas milciclib inhibited ovarian cancer invasion and proliferation. […] To evaluate the clinical potential of NCGC00117362, structure - activity relationship studies were performed. […] The three compounds identified have promise as therapeutics for prevention and treatment of ovarian cancer metastasis.
PROTOCOL TABLE (as described by Inglese J, Shamu CE and Guy RK. 2007) SEQUENCE No. (e.g., 1, 2, 3, etc.); […] (e.g., Cells, Incubation, Reagent, etc.); VALUE; DESCRIPTION. 1; Cells; 4 uL; primary human omental fibroblast, black, clear bottom, low base, 1536-well Aurora assay plate. 2; Incubation; 48 hr; 37C. 3; Cells; 3 uL; 1,200 SKOV3ip1-GFP cells. 4; Compounds; 23nL; acoustic dispenser. 5; Incubation; 2 hr; room temperature. 6; Incubation; 16 hr; 37C. 7; Wash; 5 uL; 1x PBS. 8; Fixing; 5 uL; 4% paraformaldehyde (PFA). 9; Incubation; 15 min; room temperature 10; Wash, 5 uL; 1x PBS. 11; Detection; Fluorescence, excitation filter 488 nm, emission filter 509 nm. NOTES (numbers refer to Sequence numbers above) 1. For the 1,536-well format, 40 primary human omental fibroblasts and 400 mesothelial cells were seeded with 0.02 µg fibronectin and 0.02 µg collagen type I in 4 µL of growth media (2.3 mm2; Supplementary Fig. S1A). 2. Assay plates were incubated for 48 hours at 37 C. 3. After incubation, 1,200 SKOV3ip1-GFP were seeded in 3 µL of serum-free media (growth media minus FBS) on top of primary human omental cells. 4. Compounds or controls were added to each well immediately after the addition of the cancer cells. Compounds were screened in four doses (0.36-46 µmol/L), and the plates contained the positive control (Tomatine) in eight doses (0.035-75 µmol/L) and DMSO (equal volume controls) 5 - 6. The plates were incubated at room temperature for 2 hours and then at 37 degrees C for 16 hours. 7 - 10. Following incubation, the media were aspirated and each well washed with PBS (5 µL) and then fixed with 4% paraformaldehyde (PFA; 5 µL). After 15 minutes, the PFA solution was aspirated, PBS (5 µL) was added. 11. The number of GFP-labeled cells analyzed using a fluorescent cytometer TTP LabTech Acumen eX3 using 488 nm excitation filter and 509 nm emission filter. Data was normalized to the DMSO treated for negative and Tomatine treated wells for positive control. REFERENCES: Inglese J, Shamu CE and Guy RK, Reporting data from high throughput screening of small molecule libraries, Nature Chemical Biology, 2007, 3(8): 438-441. doi.org/10.1038/nchembio0807-438. Yasgar A, Shinn P, Jadhav A, Auld DS, Michael S, Zheng W, Austin CP, Inglese J and Simeonov A, Compound Management for Quantitative High-Throughput Screening. J. Assoc. Lab. Auto., 2008, 13: 79-89. doi: 10.1016/j.jala.2007.12.004.
Potency means the concentration at half of the fitted maximal effect; tags describe the fitted curve by direction and shape.

Which Potency does the source give for `Cc1ccc(-c2nc(CN3C(=O)CN=C(c4ccccc4Cl)c4cc(Cl)ccc43)c(C)o2)cc1` here?
The Potency was inconclusive [inhibitor, single point].

For `CCOP(=O)(OCC)C(C)NC(=O)N(CCCl)N=O` (configuration not stated), which Potency is on record?
Its Potency is “inactive”.

With `COC1=CC(C)=C[C@@H](C)[C@@H](O)[C@@H](C)CC(C)=CC=C[C@H](OC)[C@H]([C@@H](C)[C@@H](O)[C@H](C)[C@@]2(O)C[C@@H](O)[C@H](C)[C@@H](C(C)C)O2)OC1=O` as the compound, how does the Potency read?
Its Potency is inconclusive [inhibitor, partial curve, poor fit].

For `O=c1c2ccccc2nc(/C=C/c2ccccc2F)n1-c1cccc(O)c1`, which Potency is on record?
The Potency was inconclusive [inhibitor, single point].

Which Potency does the source give for `CC[C@@H]1[C@@H](C)O[C@@](O)([C@@H](C)[C@H](O)[C@H](C)[C@H]2OC(=O)C=CC=C[C@@H](C)[C@@H]([C@@H](C)[C@@H](O)[C@H](C)[C@@]3(O)C[C@H](O[C@H]4C[C@H](O)[C@H](O)[C@H](C)O4)[C@H](CC)[C@@H](C)O3)OC(=O)C=CC=C[C@@H]2C)C[C@H]1O[C@H]1C[C@H](O)[C@H](O)[C@H](C)O1` here?
Its Potency is inconclusive [inhibitor, full curve].

For `C[C@H]([C@H](O)CCC(C)(C)O)[C@H]1CC[C@@]2(O)C3=CC(=O)[C@@H]4C[C@@H](O)[C@@H](O)C[C@]4(C)[C@@H]3CC[C@]12C`, which Potency is on record?
The Potency was “inactive”.

For `C[C@@H]1O[C@@H](O[C@H]2C[C@@H](O)[C@]3(CO)[C@H]4[C@H](O)C[C@]5(C)[C@@H](C6=CC(=O)OC6)CC[C@]5(O)[C@@H]4CC[C@]3(O)C2)[C@H](O)[C@H](O)[C@H]1O`, which Potency is on record?
The Potency was “inactive”.

Which Potency does the source give for `Cc1ccc(NC(=O)N(Cc2ccc3c(c2)OCO3)C2CCN(Cc3ccccc3)CC2)cc1C` here?
The Potency was inconclusive [inhibitor, partial curve, poor fit].

For `CSc1ccc(CN2CCN(C(=O)COc3cccc(C)c3)CC2)cc1`, which Potency is on record?
The Potency was inconclusive [inhibitor, full curve, poor fit].

Which Potency does the source give for `CC[C@@H](C(N)=O)N1CCCC1=O` here?
Its Potency is inconclusive [inhibitor, single point].

Which Potency does the source give for `C[C@@H]1CC[C@@]2(OC1)O[C@H]1C[C@H]3[C@@H]4CC=C5C[C@@H](O[C@@H]6O[C@H](CO)[C@@H](O[C@@H]7O[C@@H](C)[C@H](O)[C@@H](O)[C@@H]7O)[C@H](O)[C@@H]6O[C@@H]6O[C@@H](C)[C@H](O)[C@@H](O)[C@@H]6O)CC[C@]5(C)[C@@H]4CC[C@]3(C)[C@@H]1[C@H]2C` here?
The Potency was inconclusive [inhibitor, full curve].

Which Potency does the source give for `Nc1c(C(=O)Nc2cccc(Br)c2)sc2nc3c(cc12)N1CCC3CC1` here?
Its Potency is “inactive”.

Which Potency does the source give for `Cc1cccc2sc(NC(=O)c3cccn(Cc4ccccc4)c3=O)nc12` here?
The Potency was inconclusive [inhibitor, single point].

Which Potency does the source give for `CC=C(C)C(=O)O[C@H]1C(C)=C2[C@@H]3OC(=O)[C@@](C)(O)[C@@]3(O)[C@@H](OC(=O)CCC)C[C@](C)(OC(C)=O)[C@@H]2[C@@H]1OC(=O)CCCCCCC` here?
The Potency was inconclusive [inhibitor, partial curve, poor fit].

With `C[C@@H]1[C@@H](C(=O)C[C@H]2O[C@@H]3O[C@]4(C)CC[C@@H]5[C@H](C)CC[C@@H]([C@H]2C)[C@@]35OO4)O[C@@H]2O[C@]3(C)CC[C@H]4[C@H](C)CC[C@@H]1[C@@]24OO3` as the compound, how does the Potency read?
The Potency was “inactive”.

Which Potency does the source give for `Cc1ccccc1-n1c(Cn2cnc3c(N)ncnc32)nc2cccc(C)c2c1=O` here?
The Potency was inconclusive [inhibitor, partial curve, poor fit].

Which Potency does the source give for `COc1ccc(N(C(=O)Oc2c(C)cccc2C)c2ccnc(Nc3ccc(N4CCN(C)CC4)cc3)n2)c(OC)c1` here?
Its Potency is inconclusive [inhibitor, single point].

For `O=C1CN=C(c2ccccc2)c2cc(Cl)ccc2N1Cc1ccc(Cl)cc1`, which Potency is on record?
The Potency was inconclusive [inhibitor, single point].

Which Potency does the source give for `CC(C)(C)c1cc(C=C(C#N)C#N)cc(Br)c1O` here?
The Potency was “inactive”.

With `O=C1C=CC[C@@H]2[C@H]3CCCN4CCC[C@@H](CN12)[C@@H]34` as the compound, how does the Potency read?
Its Potency is inconclusive [inhibitor, single point].

For `CCOC(=O)c1ccc(NC(=O)c2cccn(Cc3ccccc3F)c2=O)cc1`, which Potency is on record?
Its Potency is “inactive”.

Which Potency does the source give for `CCCc1nc(SC)ncc1C(=O)Nc1ccc(Cl)cc1C(=O)c1ccccc1` here?
Its Potency is “inactive”.

With `O=C(O)c1nn(Cc2ccc(Cl)cc2Cl)c2ccccc12` as the compound, how does the Potency read?
The Potency was “inactive”.

Which Potency does the source give for `O=c1c2ccccc2nc(/C=C\c2cccc(Br)c2)n1-c1ccc(O)cc1` here?
Its Potency is inconclusive [inhibitor, single point].

For `CCN1CCN(C(=O)Cc2ccc(Nc3ncc(F)c(Nc4ccc(C(=O)Nc5ccccc5Cl)cc4)n3)cc2)CC1`, which Potency is on record?
Its Potency is inconclusive [inhibitor, single point].

For `Cc1ccc(NC(=O)c2cccn(Cc3ccccc3C)c2=O)c(C)c1`, which Potency is on record?
Its Potency is “inactive”.

With `O=C1CN=C(c2ccccc2Cl)c2cc(Cl)ccc2N1Cc1cccc(Cl)c1` as the compound, how does the Potency read?
Its Potency is inconclusive [inhibitor, partial curve, poor fit].

For `Cc1cccc(CN2CC=C(c3noc(CCC(=O)Nc4ccc(C)c(F)c4)n3)CC2)c1`, which Potency is on record?
The Potency was inconclusive [inhibitor, single point].

For `CCOc1ccc(CN(CCc2ccc3c(c2)OCO3)Cc2cccc(OC)c2)cc1`, which Potency is on record?
Its Potency is “inactive”.

With `CCc1c(C(=O)C(N)=O)c2c(OCC(=O)O)cccc2n1Cc1ccccc1` as the compound, how does the Potency read?
The Potency was “inactive”.

For `Cc1cccc(-n2c(/C=C/c3ccccc3O)nc3ccccc3c2=O)c1`, which Potency is on record?
Its Potency is inconclusive [inhibitor, single point].

With `CCN(CC)C(=O)c1ccc(C2=CC3(CCNCC3)Oc3cccc(O)c32)cc1` as the compound, how does the Potency read?
The Potency was “inactive”.
